PubChem BioAssay AID1508623 (National Center for Advancing Translational Sciences (NCATS), 2021)
The whole screen tested about 48,000 compounds, of which about 450 (0.94%) were called active. Another 19% or so got no clear call; they are omitted. The call rests on the fitted dose curve; in most records, active means well fitted inhibition curve with a large enough effect; inconclusive means small, poorly fitted or top-dose-only effect; inactive means no such curve, though single readings can be large or run the other way. This is one part of the list.

assay: Primary qHTS for Identification of Small Molecule Inhibitors of Huntingtin Promoter Activity; details: HEK293 HTT promoter firefly luciferase reporter (activity 0% = vehicle and -100% = no light), 24 h; series mostly up to 57.5 µM; activity change, negative = inhibition: at the top concentration; further: nearly all actives have a fitted effect of over 50% in size
Method in brief: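 HEK293 Fluc reporter, 2,500 cells/well, 24 h pre-culture; cpds up to 57.5 uM final, 24 h 37 degrees C; Dual-Glo, 10 min RT; normalized vehicle = 0%, zero RLU = -100%.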

Activity change, negative = inhibition, inactive:
Cc1ccccc1OCC(=O)N(Cc1ccc(N(C)C)cc1)CC1CCCO1 (configuration not stated) -25.5%
OCc1nc2ccccc2n1Cc1c(F)cccc1Cl 0%
Cn1cc(-c2cc3n(n2)CCC(=O)N3CC(=O)O)c2ccccc21 -14.5%
Cc1cccc(CNC(=O)CCCN2C(=O)CCn3nc(-c4cn(C)c5ccccc45)cc32)c1 0%
CCN(CC)c1ccc(NC(=O)c2cc(S(=O)(=O)N3CCc4ccccc43)cn2C)c(C)c1 -0.905%
CCN1CCN(c2c(S(=O)(=O)c3ccccc3)cnc3ccc(Cl)cc23)CC1 -6.53%
Cc1ccc(OCC(=O)OCc2cc(=O)n3nc(-c4cccs4)sc3n2)cc1 2.5%
COc1cccc(NC(=O)C2CCCN(c3nnc(-n4c(C)ccc4C)s3)C2)c1 (configuration not stated) -7.47%
COCCCn1c(=N)c(S(=O)(=O)c2ccccc2)cc2c(=O)n3cc(C)ccc3nc21 -2.66%
COc1ccccc1CNC(=O)CCCn1nc(C)c2sc3ccccc3c2c1=O 8.36%
CC(C)(C)OC(=O)N1CCC(c2c(C(=O)N3CCN(c4ccc(Cl)cc4)CC3)cnn2-c2ccc(F)cc2F)CC1 -12.1%
COc1ccc(Cl)cc1NC(=O)c1cc2ccc3ccc(C)[nH]c3c2n1 -2.31%
Cn1cc(S(=O)(=O)c2ccc(Cl)cc2)c(=O)c2cc(F)c(N3CCCC3)cc21 -17.4%
Cn1c(=O)c2nc(SCC(=O)Nc3cc(Cl)cc(Cl)c3)n(C)c2n(C)c1=O -20%
CCc1ccc(NC(=O)CSc2c(C)cnc3c2c(=O)n(C)c(=O)n3C)cc1 -17%
Cc1nc2sccn2c(=O)c1S(=O)(=O)NCc1ccc(F)cc1 -10.2%
Cc1ccc(Cn2c(CNS(=O)(=O)c3ccc(C(C)(C)C)cc3)nc3cccnc32)cc1 -29.1%
O=C(c1cc(-c2ccc(Cl)cc2)on1)N(Cc1cccc(F)c1)Cc1ccco1 -33.7%
COc1ccc(CNc2nc(-c3ccco3)nn2C(=O)c2ccccc2Cl)cc1 58.3%
COc1cc(NC(=O)c2cc(-c3cccs3)on2)c(OC)cc1Cl -3.84% [at 11.5 µM]
COc1ccc(NC(=O)C(=O)NCCc2ccc(OC)c(OC)c2)c(OC)c1 -4.87%
COc1ccccc1CNc1nc2ccccc2c2nc(-c3cccnc3)nn12 0.606%
O=C(COc1ccccc1Cl)OCc1cc(=O)n2nc(C3CC3)sc2n1 -16.8%
COCCCNC(=O)c1cnn(-c2ccccc2Cl)c1C1CCN(C(=O)OC(C)(C)C)CC1 0.121%
COc1ccc(CCNC(=O)c2cccc(-n3c(C)nc4cccnc43)c2)cc1OC -9.9%
COc1ccc(-c2cc3nc(-c4ccc(Br)cc4)cc(C(F)(F)F)n3n2)cc1 -18.1%
COC(=O)c1ccc(NC(=O)CSc2cn(CC(=O)N3CCCCCC3)c3ccccc23)cc1 -28%
